This data set concerns the molecule itself. Description: SEC-MALS; Superdex 200 Increase, 20 mM sodium phosphate pH 7.0, 1 mM DTT, 50 mM NaCl; loading 249 μM HP1α, 307 μM pHP1α; other loading concentrations in Supplementary Fig. S3A.

By stoichiometry N is commonly meant a count of units in the complex or per binding partner.

B1: Full-length HP1α_Ser97Ala (heterochromatin protein 1α), unphosphorylated (natural protein)
chain: not shown
notes: heterochromatin protein 1α (HP1α), human, full length with Ser97Ala; Expressed from a modified pET15b with a PreScission site; His-tag cut by HRV3C protease; also called HP1α_S97A; source: E. coli BL21 (DE3) star, purified (Ni Sepharose, HiTrap Heparin, Superdex 200)
Take B1: the “stoichiometry N” value is 2.

B2: Full-length HP1α_Ser97Ala phosphorylated at Ser11, Ser12, Ser13 and Ser14 (natural protein)
chain: not shown
modifications: phosphoserine at Ser11, Ser12, Ser13 and Ser14
notes: heterochromatin protein 1α (HP1α), human, full length with Ser97Ala; Phosphorylation of the four serines confirmed by MALDI-TOF where necessary; also called pHP1α; pHP1α_S97A; source: E. coli BL21 (DE3) star, co-expressed with CK2 (pRSFduet), purified (Ni Sepharose, HiTrap Heparin, Superdex 200)
Take B2: the “stoichiometry N” value is 2.

The values above are taken from article PMC11930357, “A dynamic structural unit of phase-separated heterochromatin protein 1α as revealed by integrative structural analyses” (Nucleic Acids Research, 2025).
